In patent publication US20210340207A1 (Merck Sharp & Dohme, published 2021):

What was measured:
Test in all cases: cell-based or functional assay
[1] = biological target: T1, mouse IL-2Rαβγc (on CTLL2-STAT5 reporter cells) (mouse, UniProt P01590 22-268; P16297 27-539; P34902 23-369)
T1 sequence (looked up) 1: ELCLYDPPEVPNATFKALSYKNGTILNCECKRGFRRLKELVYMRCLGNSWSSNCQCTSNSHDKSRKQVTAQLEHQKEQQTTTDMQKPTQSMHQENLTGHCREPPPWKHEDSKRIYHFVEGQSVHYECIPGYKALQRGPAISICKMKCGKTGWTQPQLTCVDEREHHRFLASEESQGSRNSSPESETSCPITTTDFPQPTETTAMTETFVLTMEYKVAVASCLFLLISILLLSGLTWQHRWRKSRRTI
T1 sequence (looked up) 2: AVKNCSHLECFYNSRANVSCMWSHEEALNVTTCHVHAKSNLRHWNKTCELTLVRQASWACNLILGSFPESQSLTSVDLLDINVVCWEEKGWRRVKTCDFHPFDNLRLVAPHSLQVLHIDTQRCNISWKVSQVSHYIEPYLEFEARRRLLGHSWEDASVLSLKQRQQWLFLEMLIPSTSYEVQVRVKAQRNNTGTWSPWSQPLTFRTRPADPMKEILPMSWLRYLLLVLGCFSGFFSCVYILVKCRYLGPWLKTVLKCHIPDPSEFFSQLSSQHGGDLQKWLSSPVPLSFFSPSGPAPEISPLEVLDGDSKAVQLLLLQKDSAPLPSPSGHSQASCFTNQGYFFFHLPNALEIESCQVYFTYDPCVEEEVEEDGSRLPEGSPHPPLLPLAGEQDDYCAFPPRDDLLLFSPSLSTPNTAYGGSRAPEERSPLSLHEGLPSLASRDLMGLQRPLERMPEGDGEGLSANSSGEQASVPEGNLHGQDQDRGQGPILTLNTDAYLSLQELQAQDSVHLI
T1 sequence (looked up) 3: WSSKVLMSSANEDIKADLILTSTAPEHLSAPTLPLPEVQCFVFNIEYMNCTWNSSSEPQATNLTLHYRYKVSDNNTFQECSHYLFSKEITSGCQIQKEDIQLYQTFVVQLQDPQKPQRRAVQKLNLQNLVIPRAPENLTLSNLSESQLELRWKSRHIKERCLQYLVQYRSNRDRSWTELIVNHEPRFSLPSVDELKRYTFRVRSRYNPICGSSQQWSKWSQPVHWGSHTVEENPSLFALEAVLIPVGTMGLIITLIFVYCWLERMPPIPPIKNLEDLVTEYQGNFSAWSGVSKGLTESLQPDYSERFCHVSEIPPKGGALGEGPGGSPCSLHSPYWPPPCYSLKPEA

[2] = biological target: T2, human IL-2Rβγc (on DERL-7 cells, U2OS IL2RB/IL2RG cells, CD25 knockout Kit225-STAT5 cells, primary CD8+ CTLs) (human, UniProt P14784 27-551; P31785 23-369)
T2 sequence (looked up) 1: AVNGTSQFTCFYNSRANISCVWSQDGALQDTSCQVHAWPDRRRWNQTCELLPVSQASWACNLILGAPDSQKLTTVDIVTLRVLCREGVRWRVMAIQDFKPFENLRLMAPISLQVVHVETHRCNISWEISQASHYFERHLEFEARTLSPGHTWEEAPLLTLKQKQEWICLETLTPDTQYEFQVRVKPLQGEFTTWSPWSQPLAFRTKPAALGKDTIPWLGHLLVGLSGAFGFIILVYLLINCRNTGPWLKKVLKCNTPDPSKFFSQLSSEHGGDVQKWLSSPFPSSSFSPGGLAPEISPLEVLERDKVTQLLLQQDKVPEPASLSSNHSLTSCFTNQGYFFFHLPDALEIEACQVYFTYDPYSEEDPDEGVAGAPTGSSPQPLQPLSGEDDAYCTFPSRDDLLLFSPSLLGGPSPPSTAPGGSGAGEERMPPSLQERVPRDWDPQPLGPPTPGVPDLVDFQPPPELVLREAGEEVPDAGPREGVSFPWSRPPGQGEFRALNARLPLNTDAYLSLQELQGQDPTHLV
T2 sequence (looked up) 2: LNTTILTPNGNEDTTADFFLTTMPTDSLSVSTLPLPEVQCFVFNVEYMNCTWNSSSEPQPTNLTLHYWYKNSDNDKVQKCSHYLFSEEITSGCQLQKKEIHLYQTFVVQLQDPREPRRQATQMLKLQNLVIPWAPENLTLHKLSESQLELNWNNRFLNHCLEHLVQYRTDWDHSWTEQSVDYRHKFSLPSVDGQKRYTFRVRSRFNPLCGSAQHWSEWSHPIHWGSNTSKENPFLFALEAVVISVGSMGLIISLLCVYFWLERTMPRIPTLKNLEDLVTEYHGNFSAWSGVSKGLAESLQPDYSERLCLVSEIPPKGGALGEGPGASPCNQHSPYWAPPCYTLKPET

[3] = biological target: T1, mouse IL-2Rαβγc (on CTLL2-STAT5 …); remark: listed apart in the source
[4] = biological target: T3, human IL-2Rαβγc (on Kit225-STAT5 reporter cells, NK-92 cells, primary Treg cells) (human, UniProt P01589 22-272; P14784 27-551; P31785 23-369)
T3 sequence (looked up) 1: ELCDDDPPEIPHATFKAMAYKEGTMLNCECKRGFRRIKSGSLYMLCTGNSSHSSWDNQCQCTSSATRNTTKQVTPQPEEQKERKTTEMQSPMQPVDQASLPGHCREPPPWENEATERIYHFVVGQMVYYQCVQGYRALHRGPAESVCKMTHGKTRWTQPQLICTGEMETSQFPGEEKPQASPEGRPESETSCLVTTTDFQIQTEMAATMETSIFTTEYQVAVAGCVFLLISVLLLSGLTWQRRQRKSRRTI
T3 sequence (looked up) 2: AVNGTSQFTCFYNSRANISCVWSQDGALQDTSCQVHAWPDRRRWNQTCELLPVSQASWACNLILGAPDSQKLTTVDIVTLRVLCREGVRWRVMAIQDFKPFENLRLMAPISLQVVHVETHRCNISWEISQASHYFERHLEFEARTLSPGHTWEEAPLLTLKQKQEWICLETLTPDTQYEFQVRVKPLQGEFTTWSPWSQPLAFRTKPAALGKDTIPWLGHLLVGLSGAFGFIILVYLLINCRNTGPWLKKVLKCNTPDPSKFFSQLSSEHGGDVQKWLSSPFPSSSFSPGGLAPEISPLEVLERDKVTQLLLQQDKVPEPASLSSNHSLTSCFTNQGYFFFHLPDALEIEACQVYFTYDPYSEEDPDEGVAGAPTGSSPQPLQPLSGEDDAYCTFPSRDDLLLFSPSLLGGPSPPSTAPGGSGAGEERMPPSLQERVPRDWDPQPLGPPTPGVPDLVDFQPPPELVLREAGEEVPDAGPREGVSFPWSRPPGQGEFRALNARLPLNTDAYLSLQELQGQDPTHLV
T3 sequence (looked up) 3: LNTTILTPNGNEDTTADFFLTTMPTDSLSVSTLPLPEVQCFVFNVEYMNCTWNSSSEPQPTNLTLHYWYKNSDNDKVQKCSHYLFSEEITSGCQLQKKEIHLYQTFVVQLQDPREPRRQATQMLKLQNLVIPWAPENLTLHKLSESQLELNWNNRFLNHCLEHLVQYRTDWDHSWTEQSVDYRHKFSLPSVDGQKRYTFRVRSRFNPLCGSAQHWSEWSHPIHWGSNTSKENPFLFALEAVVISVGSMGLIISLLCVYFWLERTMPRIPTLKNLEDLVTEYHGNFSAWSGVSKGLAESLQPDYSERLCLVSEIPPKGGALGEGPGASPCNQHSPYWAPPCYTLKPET

[5] = biological target: T2, human IL-2Rβγc (on DERL-7 cells, U2OS …); remark: listed apart in the source

CTLL2-STAT5 EC50 [1]: 12 pM
U2OS-IL2Rbg EC50 [2]: 813 pM
STAT5-CTLL2 EC50 [3]: 11 pM
STAT5-CTLL2 EC50 Fold-change [3]: 1 fold
Kit225-STAT5 EC50 [4]: 1 pM
Kit225-STAT5 EC50 Fold-change [4]: 1 fold
NK-92 EC50 Fold-change [4]: 1 fold
NK-92 proliferation EC50 [4]: 6 pM
DERL-7 EC50 Fold-change [5]: 1 fold
DERL-7 proliferation EC50 [5]: 44 pM
B1: Aldesleukin (DesA1_IL-2_C124S) (ligand)
chain: not shown
